PubChem BioAssay AID504706 (National Center for Advancing Translational Sciences (NCATS), 2011)
Screen size: about 320,000 compounds; about 200 (0.062%) were called active. The inconclusive results got no clear call from the source; some entries with a clear call stand among them for comparison. The call rests on the fitted dose curve; in most records, active means well fitted activation curve with a large enough effect; inconclusive means small, poorly fitted or top-dose-only effect; inactive means no such curve, though single readings can be large or run the other way. Potencies of inconclusive entries are left out as doubtful fits.

Assay: qHTS assay for re-activators of p53 using a Luc reporter; further: nearly all actives have a fitted effect of over 45% in size
Settings: H1299 p53-A138V BP100-luciferase reporter, luminescence, 24 h; series mostly up to 92.2 µM
Summary of the method: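 p53-null H1299 cells stably carrying temperature-sensitive p53-A138V and a BP100-luciferase reporter were pinned with compounds (4-point, 1:5 series) and held 24 hrs at 37 deg C. Luminescence was read 10 min after detection reagent.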
Potency means the concentration at half of the fitted maximal effect; tags describe the fitted curve by direction and shape.

Compound	Potency
COc1ccc(NC(=O)CNS(=O)(=O)c2cccs2)cc1	inconclusive [activator, single point]
O=C(NC1CCCCC1)n1c(=O)oc2cc(S(=O)(=O)N3CCCCC3)ccc21	inconclusive [activator, single point]
COc1ccc2nc3c(nc2c1)CCCC3	inconclusive [activator, single point]
O=C(NCc1ccccn1)Nc1cccc(NC(=O)NCc2ccccn2)c1	inconclusive [activator, partial curve, poor fit]
Cc1cc(C(=O)NC(C)c2ccc3c(c2)OCO3)cs1 (configuration not stated)	inactive
COc1ccc(CCNC(=O)C2CC(c3ccc([N+](=O)[O-])cc3)=NO2)cc1 (configuration not stated)	inconclusive [activator, partial curve, poor fit]
Cc1cc(C(=O)CN2C(=O)NC(C)(c3ccccc3)C2=O)c(C)n1CC1CCCO1 (configuration not stated)	inconclusive [activator, single point]
C/C(=N\Nc1nc2ccccc2[nH]1)c1ccc(C)o1	inconclusive [activator, full curve, poor fit]
O=S(=O)(Nc1ccncc1)c1ccc(Cl)c(Cl)c1	inconclusive [activator, partial curve, poor fit]
Cc1ccsc1/C=N/NC(=O)c1cc(-c2ccncc2)nc2ccccc12	inactive
c1ccc2c(-c3nc(-c4ccncc4)no3)cccc2c1	inconclusive [activator, partial curve]
CCc1nnc(NS(=O)(=O)c2ccc(N/C=C\C(=O)c3ccc(C)cc3)cc2)s1	inconclusive [activator, partial curve, poor fit]
Cc1sc(N/N=C/c2cccs2)nc1-c1ccccc1	inconclusive [activator, partial curve, poor fit]
CN(C)c1ccc(NS(=O)(=O)c2cc(Cl)ccc2Cl)cc1	inconclusive [activator, full curve, poor fit]
Cc1cc(C)[n+]2[nH]c(N)c(N=Nc3ccccc3)c2n1	inactive
Cc1ccccc1C(=O)Nc1cc(S(=O)(=O)N2CCCCC2)ccc1N1CCN(C)CC1	inactive
COc1ccc(OC)c(/C=N/NC(=O)C(=O)N2CCCCCC2)c1	inactive
O=C(Cc1nc2ccccc2[nH]1)c1ccc(Cl)cc1	inconclusive [activator, partial curve, poor fit]
COc1ccc(-c2csc(N(CCCN(C)C)C(=O)c3ccccc3F)n2)cc1	inactive
COC(=O)CNS(=O)(=O)c1ccc(Cc2ccc(S(=O)(=O)NCC(=O)OC)cc2)cc1	inconclusive [activator, partial curve, poor fit]
CC(=O)N=C(N)Sc1nc2ccccc2[nH]1	inconclusive [activator, full curve, poor fit]

Compound	Potency
O=C(/N=C1\NC(=O)C(F)(C(F)(F)F)S1)NC1CCCCC1 (configuration not stated)	inconclusive [activator, partial curve]
CC(C)c1ccc(/C=N\NC(=O)c2ccc(Cn3cccn3)o2)cc1	inconclusive [activator, partial curve, poor fit]
Cc1cc(C)n(-c2ccc(C(=O)Nc3nnc(C4CC4)s3)cc2)n1	inconclusive [activator, single point]
Cc1ccccc1C(=O)NC(=S)NCCc1ccccc1	inconclusive [activator, single point]
Cn1c(C(=O)NC2CCCCC2)cc2c(=O)n3ccccc3nc21	inconclusive [activator, partial curve, poor fit]
O=C(CSc1nnc(C2CCCCC2)o1)Nc1ccccc1Cl	inconclusive [activator, partial curve, poor fit]
Cc1ccc(C(=O)OCC(=O)NC2CCCCCC2)c(C)c1	inconclusive [activator, single point]
CCc1ccc(Nc2nnc(SCC(=O)c3c(N)n(C4CC4)c(=O)[nH]c3=O)s2)cc1	inconclusive [activator, full curve, poor fit]
S=C(Nc1ccc(Br)cc1)N1CCN(C2CCCCC2)CC1	inactive
Cc1ccc(SCc2nc(-c3ccccn3)no2)cc1	inconclusive [activator, partial curve, poor fit]
CCCc1c(C(=O)Nc2ccc(C(F)(F)F)cc2)cnn1-c1ccccc1	inactive
O=C(Nc1ccc(F)cc1F)c1ccc2c(c1)OCCO2	inconclusive [activator, full curve, poor fit]
COc1c(C)cccc1C(=O)Nc1ccc(CN2CCOCC2)cc1	inconclusive [activator, partial curve, poor fit]
COc1cccc(CN(C)C(=O)c2cc(COc3c(F)cccc3F)on2)c1	inactive
O=C(CCC1CCCCC1)Nc1ccccc1O	inconclusive [activator, partial curve]
Cc1noc(/C=C/Nc2ccc(F)cc2F)c1[N+](=O)[O-]	inconclusive [activator, full curve, poor fit]
CCOC(=O)N/C(N)=N/c1nc2ccccc2s1	inconclusive [activator, partial curve]
Oc1oc(-c2ccccc2)nc1/C=N/c1nccs1	inconclusive [activator, partial curve, poor fit]
Cc1cccc(C(=O)O/N=C(\N)c2cccc([N+](=O)[O-])c2)c1	inconclusive [activator, full curve, poor fit]
CCOc1ccc(N(CC(=O)NCc2ccc(Cl)cc2)S(=O)(=O)c2c(C)noc2C)cc1	inconclusive [activator, partial curve, poor fit]
O=C(CCn1cccn1)Nc1ccc(-c2ccno2)cc1	inconclusive [activator, partial curve, poor fit]
